TGI and GI50 data for 59 molecules are collected here from PubChem BioAssay (NCI).

Each structure is given as a SMILES string. Values joined by “and” are separate entries in the source; they are usually repeats but may differ in a detail not shown here. Equal entries are not always repeated.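 These data come from cells grown in 96-well plates and exposed to compound for 48 hours at five concentrations. At the GI50, growth is halved. TGI denotes the concentration required for complete inhibition of growth.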

The assay concerns NCI-H322M lung. Briefly: growth of human tumour cells (NCI), 48 h.
Turning to `N#Cc1c(N)nc(Sc2ccccc2N)c(C#N)c1-c1ccc(Cl)cc1`, the TGI is > 100 µM.

On to `CCC(=O)Nc1ccc(N2C(=O)C(Cl)C2c2ccc(SC)cc2)cc1` (stereo not drawn), for which the TGI was > 100 µM.

With `Cc1cn(CC2=NCC(C)N2)c(=O)[nH]c1=O` (stereo not drawn), the TGI is > 100 µM.

With `N#CC1CCCCCCCCCCC(=O)N(CCCl)C1=O` (stereo not drawn), the TGI was > 100 µM.

For `O=C(OC[C@H]1O[C@H](OC(=O)c2cc(O)c(O)c(OC(=O)c3cc(O)c(O)c(O)c3)c2)[C@H](OC(=O)c2cc(O)c(O)c(OC(=O)c3cc(O)c(O)c(O)c3)c2)[C@@H](OC(=O)c2cc(O)c(O)c(OC(=O)c3cc(O)c(O)c(O)c3)c2)[C@@H]1OC(=O)c1cc(O)c(O)c(OC(=O)c2cc(O)c(O)c(O)c2)c1)c1cc(O)c(O)c(OC(=O)c2cc(O)c(O)c(O)c2)c1`, the GI50 is 1.41 µM and the TGI was 20 µM.

Consider `CC(=O)C1=C(O)CC2CC3c4[nH]c5ccccc5c4CCN3CC2C1` (stereo not drawn), for which the TGI was > 100 µM.

In the case of `CCNC(=O)O[C@H]1CN[C@H](C#Cc2cc3ncnc(Nc4ccc(OCc5cccc(F)c5)c(Cl)c4)c3s2)C1`, the GI50 was 0.836 µM and the TGI was 12.9 µM.

Consider `Cc1ccc(Cl)cc1NC(=O)c1sc2nc3c(cc2c1N)C(=O)CCC3`, for which the GI50 was 16 µM and the TGI was > 100 µM.

In the case of `O=Cc1c(O)c(C(=O)Nc2ccc3[nH]c(=O)[nH]c3c2)cc2ccccc12`, the TGI was > 100 µM.

On to `C#CCOc1cccc(Nc2ncnc3cc(NC(=O)CCl)ccc23)c1`, for which the GI50 is 13.3 µM and the TGI was 26 µM.

In the case of `Cc1cc2c(C)nn(Cc3ccc(Cl)cc3)c2c(C#N)c1C`, the TGI was > 100 µM.

On to `Cc1cc(C)cc(NC(N)=S)c1`, for which the TGI is > 100 µM.

In the case of `CCCC(=O)Nc1cc(/C=C/C(=O)N2CC(CCl)c3c2cc(O)c2[nH]cc(C)c32)n(C)c1` (stereo not drawn), the TGI is < 2.5e-05 µM.

Molecule `C[C@@H]1CC[C@@H]2[C@@H](C1)O[C@@H]([C@H](C)OCc1ccccc1)SC2(C)C` gave a TGI of 68.4 µM.

Regarding `COc1ccccc1C(=O)c1c(NCc2ccccc2)c(=O)c1=O`, the TGI is > 100 µM.

Turning to `CCOC(=O)C(SCCO)C(C(=O)OCC)n1ccc(=O)[nH]c1=O` (stereo not drawn), the TGI is > 100 µM.

Regarding `O=C1CC(c2ccccc2)n2cccc21` (stereo not drawn), the TGI was > 100 µM.

For the molecule `COc1ccc(C(=O)/C=C/c2cc(O)c(O)c(F)c2F)c(OC)c1`, the TGI was > 100 µM.

Turning to `Cc1cn(-c2cc(NC(=O)c3ccc(C)c(Nc4nccc(-c5cccnc5)n4)c3)cc(C(F)(F)F)c2)cn1`, the GI50 is > 10 µM and 8 µM; the TGI is > 10 µM and 28.9 µM.

Turning to `C=C(c1ccccc1)[C@@]1(O)CC[C@@H]1N(CC#N)Cc1ccccc1`, the TGI was > 100 µM.

As to `COC(=O)Nc1nc2ccc(Br)cc2[nH]1`, the TGI is > 100 µM.

For the molecule `CN(C)CCCNC(=O)c1cc(NC(=O)c2cc(NC(=O)CCNS(=O)(=O)c3ccc4c(c3)C(=O)c3ccccc3C4=O)cn2C)cn1C`, the GI50 is 35.7 µM and the TGI is > 100 µM.

Consider `C=CCc1cccc2cc(C(=O)Nc3ccccn3)c(=N)oc12`, for which the TGI is > 100 µM.

For `O=C(Nc1nc(C23CC4CC(CC(C4)C2)C3)cs1)c1cc2ccccc2oc1=O`, the TGI is > 100 µM.

In the case of `CCOc1ccc2nc(NC(=O)C(=O)C(c3cnc4ccccc4n3)[N+](=O)[O-])sc2c1` (stereo not drawn), the TGI was > 100 µM.

Consider `O=C1c2ccccc2-c2c1c1ccccc1c(=O)n2CCCn1ccnc1`, for which the GI50 was 2.3 µM and the TGI is 6.13 µM.

As for `O=C1Oc2cc(O)cc(/C=C/c3ccc(O)cc3)c2[C@@]12c1c(O)cc(O)cc1OC2c1cccc(O)c1` (stereo partly drawn), the TGI is 87.8 µM.

For the molecule `Cc1cc(Cl)ccc1NC(=O)CC1SC(=Nc2ccccc2Cl)NC1=O` (stereo not drawn), the TGI is > 100 µM.

As to `N#Cc1cnc(N)nc1NCC1(CO)CC(CCc2ccccc2)C1` (stereo not drawn), the TGI was > 100 µM.

As to `O=C1C(=O)c2cccnc2-c2ncccc21`, the GI50 is 0.97 µM and the TGI is 3.04 µM.

`CCOC(=O)c1ccc(N=c2sc3ccccc3nc2Nc2ccc(C(=O)OCC)cc2)cc1`: the TGI was > 100 µM.

With `COC(C)(C)C/C=C/C(C)=C/C=C/C(C)=C\C=C\C(C)=C\C=C\C=C(C)\C=C\C=C(C)\C=C\C=C(C)\C=C\CC(C)(C)OC`, the GI50 is > 150 µg/mL and the TGI is > 150 µg/mL.

For the molecule `CC(C(O)c1ccccc1)C(O)(C(F)(F)F)C(F)(F)F` (stereo not drawn), the TGI was > 100 µM.

Regarding `OCC#Cc1ccccc1C#CCCCCCC#Cc1ccccc1C#CCO`, the GI50 was 17.8 µM and the TGI turned out to be 40.2 µM.

Molecule `CC(C)/C(Cl)=N\OC(=O)Nc1cccc(Cl)c1` gave a TGI of 33.4 µM.

Take `COc1ccc2nc(-c3ccc(O)cc3)sc2c1`: the TGI is > 100 µM.

`CC(C)NC(=O)CN1CCN(c2c(O)c3c(c(O)c2Cl)C(=O)C=CC3=O)CC1`: the TGI came to 12.1 µM.

Take `CCOC(=O)c1c2c(n3ccccc13)C(=O)c1ncccc1C2=O`: the GI50 is 0.0465 µM and the TGI was determined as 5.55 µM.

On to `O=C(O)CN1C(=O)C(Cc2ccc(O)cc2)N=C(c2cccc(O)c2)c2ccccc21` (stereo not drawn), for which the TGI is > 100 µM.

Regarding `COc1cc(-c2nc(SCCC(C)C)nc(Nc3ccc(S(N)(=O)=O)cc3)c2C#N)cc(OC)c1OC`, the GI50 was 4.02 µM and the TGI is > 100 µM.

As to `CC(=O)OCC1OC(n2c(-c3ccc(C)cc3)cc(-c3ccccc3)c(C#N)c2=O)C(OC(C)=O)C(OC(C)=O)C1OC(C)=O` (stereo not drawn), the TGI is > 100 µM.

Turning to `CCOC(=O)CCC(NC(=O)c1ccc(OCc2ccc3nc(-c4ccccc4)c(Cl)nc3c2)cc1)C(=O)OCC` (stereo not drawn), the TGI is > 100 µM.

Molecule `BrC(c1cccc2ccccc12)c1cccc2ccccc12` gave a TGI of 48.7 µM.

Take `Cc1cc2c([nH]c3ccccc32)c2c1OC(C)(C)C1C3CC(C)(C)Oc4c(C)cc5c6ccccc6n(c5c43)C21` (stereo not drawn): the TGI was > 100 µM.

`CO/N=C(\C)CCC#Cc1ccccc1C(=O)OC`: the TGI is > 10 µM.

As for `NC(=S)N/N=C\c1nccc2ccccc12`, the TGI was > 49 µM.

Regarding `CCCCn1c2c(n(CCCC)c1=S)-c1c(n(CCCC)c(=S)n1CCCC)SSc1c(n(CCCC)c(=S)n1CCCC)-c1c(n(CCCC)c(=S)n1CCCC)SSc1c(n(CCCC)c(=S)n1CCCC)-c1c(n(CCCC)c(=S)n1CCCC)SS2`, the TGI was > 50 µM.

Take `N#Cc1cccc(/C=N/N=C(\N)NO)c1`: the TGI was > 100 µM.

On to `CCCCCCCCCCNC(=O)CCC(NC(=O)c1ccc(N(C)Cc2cnc3nc(N)nc(N)c3n2)cc1)C(=O)NCCCCCCCCCC` (stereo not drawn), for which the TGI is > 87.3 µM.

`CN(C)CC/[N+]([O-])=C(/c1ccccc1)C12CC3CC(CC(C3)C1)C2` had a TGI of 30.4 µM.

In turn, `N#CC1(C#N)C(C#N)(C#N)C12CCCCCC2` registered a TGI of 34.9 µM.

In the case of `OCCNCNc1nc(NCNCCO)nc(N(CNCCO)CNCCO)n1`, the TGI is > 81.1 µM.

For the molecule `CC1(C)OCC=CCO1`, the TGI was > 100 µM.

On to `N/C(=N\N=C\c1ccc2c(c1)OCCO2)NO`, for which the TGI was > 64.8 µM.

Take `CCCCCCCc1cc2c3c(nc4ccccc42)C(=O)c2cccnc2-c3n1`: the GI50 is 1.88 µM and the TGI was determined as 6.46 µM.

On to `CN(C)c1nc(Cl)c2c(-c3ccccc3)c(-c3ccccc3)oc2n1`, for which the TGI was > 100 µM.

On to `CC(C)=CC1=C2C3=C(C(=O)C4(O)Oc5c(C)c6c7c(c5OC24C)[C@@H](C)CC[C@@H]7[C@@H](C)C[C@H]6C=C(C)C)C(C)CCC3C(C)C1` (stereo partly drawn), for which the GI50 was 88.8 µM and the TGI is > 100 µM.

For the molecule `N#CC1CC2(CCN1C(=O)c1ccccc1)OCCO2` (stereo not drawn), the TGI is > 100 µM.

Consider `CC(C)CC(NC(=O)OC(C)(C)C)C(=O)Nc1ccc(Nc2nc(F)nc(-c3c4ccccc4cn3C)n2)cc1` (stereo not drawn), for which the TGI worked out at 40.4 µM.
